Assay results reported in the RNAGym collection of RNA variant scans (doi:10.7554/elife.90254).
The source gives no read counts; variants with many changes may rest on few reads.

B1: LINE1-full (parent)
chain: UACGUAGGUGGUUUUCCCCUGAUAGUGCUAAGGGGGCCUGGAAGUUUGGACUGGGCAGAGCUCAACACAGCGUGGCAAAGUGGCUGUGGCUAGACUGCCUCUCUGGAUUCCUCGUCACUCAGCAGGGCAUCUCUGAGAGAAAUGCC

Variants of: B1
Assay: self-cleavage, relative activity (ratio to wild type); higher = more cleavage; in vitro, sequencing; the parent is a self-cleaving ribozyme

Row | Variant | self-cleavage
1 | U26C A43G A78G A94U U130C A138G | 0
2 | U5C U47C A107G C123U U130C A136U | 1.34
3 | U20G G60A A64C U87C U96C U119C A129U A140G | 0
4 | C19A C66U A121G | 0.03
5 | U1C U20G C28A C71U A129G | 0.47
6 | U104G G105C G125C | 1.53
7 | U20C U26C A65U C118U | 0.5
8 | G27A A30G A78G | 1.59
9 | U47A U102C U109A U112C | 1.45
10 | C16U A124U U132C | 1.59
11 | A57U U73C U102A A117U | 0.2
12 | U12G U115C U134C U143A | 0.9
13 | G93A U100C U115C | 0.02
14 | A67G A69U U100A | 0.26
15 | A59G C101U A129G | 0.02
16 | U9A U81A U100C | 2.49
17 | A30G A31G A142G | 1
18 | U9A A65G A77U | 0.16
19 | U14C U100C A136G | 0.57
20 | U52C A64U A142G | 0.5
21 | U13C A31G G48A U62G U81C | 0.56

Row | Variant | self-cleavage
22 | U14G A65G U87A | 0
23 | U29C A136G A138G | 0.97
24 | U20C U108C A140G | 2.83
25 | U1C U39A A94U | 0.12
26 | A24U G72A U91C U132A A136G | 0.92
27 | U12C A77U A79G | 1.3
28 | C37G G93U U96C | 0.04
29 | A2G U13C U87A A138G A141G | 0.38
30 | U12C U15A A65G | 0.15
31 | C120A A136U A142G | 1.48
32 | U5A U112A U115C | 1.43
33 | A107G A136G A141G | 1.34
34 | U29C U132C A140G | 2.66
35 | C61U A64G A117U | 0.02
36 | A30G A59U A64G G83A U102C | 0
37 | U23C C61U U108A A121U | 0.1
38 | U26A C84U U115C | 0.12
39 | U9A C99U A129G | 0.52
40 | U20C U81G A117G | 0.77
41 | U14C A42G A78G U96A | 0.19
42 | A2G A77G A117G A129U | 1.15

Row | Variant | self-cleavage
43 | U39A C113A U132C A138U | 1.39
44 | U13A C38U U39C A94G C116U C123U U134G | 0.13
45 | U81C U102C U109A | 1.1
46 | G4A U45C A121G A140G | 0.24
47 | A57U U73A A124U U130C | 0.08
48 | U29C G72A C131U | 1.11
49 | A2G U20C U46A U47C U132C A136G | 0
50 | U13A G36A U85C A142G | 0.14
51 | U39A A78G U115C | 1.29
52 | U1A U14C A67G | 0.27
53 | U14C G36A A57G U104A | 0.33
54 | A22U G75A A121G A136G | 1.71
55 | A64G A65C G93U | 0.01
56 | A94G C131U U132C | 0.56
57 | C18A A24G U73C A121U A140G | 0.92
58 | U12A A57G U132C | 0.57
59 | U73A U109C C118U | 1.11
60 | G21A C38U U132C | 1.92
61 | U12G U100A G126U A142G | 0.94
62 | G10U U23C U45C U73C | 0
63 | A79G C90A A129U | 0.05

Row | Variant | self-cleavage
64 | U47C U73C C111A U132C | 1.77
65 | A43G U52A A59U A64G | 0.17
66 | G35A A42G G75A C103U | 1.25
67 | U13C G72A A136G A142G | 1.02
68 | U13G U26A A43G | 0.97
69 | C28G U46C U47A A69G G72A U108C | 0.42
70 | U23C G35U U143C | 1.36
71 | U81A U85C A129G | 0.07
72 | A42G A65G A79U C116U | 0.04
73 | U15C C68A U73C U130C | 0.1
74 | U9C U62A A69G G89A | 0.07
75 | U23G U73C A136G | 0.8
76 | U15C U20C G21U U143A | 1
77 | A22U U62C G72U U108A | 0.02
78 | U13C A67U U115C | 0.41
79 | A43U U62C A64G U104C | 0
80 | A79G U91A A136G | 0.77
81 | A22G U45C A136U A138G | 0.34
82 | U29G A64U U85C | 0.11
83 | U15C A77U G114C U132C | 1.66
